Hit rate of the full screen: of about 310,000 compounds, about 14,000 (4.5%) showed an effect of 50% or more. Effects have a minus sign here. The list shows a part of the results.
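Further: peak tail current of the secondary pulse compared with the same well before compound.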

In the assay the target is human ether-à-go-go-related gene (hERG) potassium channel (human, UniProt Q12809). As to the kind of experiment: primary screen, population patch clamp on CHO cells stably expressing hERG.
human ether-à-go-go-related gene (hERG) potassium channel, sequence (Q12809 whole entry, looked up): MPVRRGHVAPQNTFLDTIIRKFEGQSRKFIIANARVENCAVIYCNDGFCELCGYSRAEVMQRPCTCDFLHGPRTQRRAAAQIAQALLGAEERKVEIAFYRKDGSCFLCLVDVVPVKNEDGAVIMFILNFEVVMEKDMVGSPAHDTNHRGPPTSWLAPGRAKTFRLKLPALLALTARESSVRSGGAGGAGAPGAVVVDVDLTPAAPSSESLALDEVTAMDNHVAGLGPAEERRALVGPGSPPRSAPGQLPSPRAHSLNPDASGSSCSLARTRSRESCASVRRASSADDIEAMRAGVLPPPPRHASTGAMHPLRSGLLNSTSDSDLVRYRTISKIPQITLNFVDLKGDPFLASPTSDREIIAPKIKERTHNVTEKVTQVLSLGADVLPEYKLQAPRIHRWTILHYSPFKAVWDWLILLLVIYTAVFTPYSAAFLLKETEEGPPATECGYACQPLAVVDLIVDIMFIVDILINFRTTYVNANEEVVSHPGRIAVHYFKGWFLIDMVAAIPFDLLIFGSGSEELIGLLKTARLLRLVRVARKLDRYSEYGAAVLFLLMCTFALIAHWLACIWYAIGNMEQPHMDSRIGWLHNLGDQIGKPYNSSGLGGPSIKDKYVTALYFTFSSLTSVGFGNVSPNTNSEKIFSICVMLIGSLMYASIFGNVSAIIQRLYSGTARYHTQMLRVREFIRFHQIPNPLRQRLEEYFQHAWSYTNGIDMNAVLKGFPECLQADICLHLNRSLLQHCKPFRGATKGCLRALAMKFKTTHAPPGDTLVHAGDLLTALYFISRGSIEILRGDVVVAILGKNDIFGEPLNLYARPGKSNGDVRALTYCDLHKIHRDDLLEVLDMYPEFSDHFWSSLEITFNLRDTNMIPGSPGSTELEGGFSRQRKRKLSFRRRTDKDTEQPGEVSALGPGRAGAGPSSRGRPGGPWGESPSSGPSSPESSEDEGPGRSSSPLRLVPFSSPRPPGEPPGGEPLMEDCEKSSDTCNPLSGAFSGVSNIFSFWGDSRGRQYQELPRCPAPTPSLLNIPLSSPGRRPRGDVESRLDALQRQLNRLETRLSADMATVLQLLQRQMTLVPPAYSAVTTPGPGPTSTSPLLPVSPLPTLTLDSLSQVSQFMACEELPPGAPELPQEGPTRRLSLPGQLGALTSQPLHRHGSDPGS
In the case of `CC(Oc1ccc(Br)cc1Br)C(=O)NC1CCCC1` (stereo not drawn), the “hERG current change (%, negative = inhibition) at 10uM” value turned out to be 16.2%.
Next, `CC(NC(=O)c1cc(S(=O)(=O)N2CCOCC2)cn1C)c1ccccc1` (stereo not drawn): -5.42%.
Turning to `Cc1c(NC(=O)CC(O)(C(F)(F)F)C(F)(F)F)c(=O)n(-c2ccccc2)n1C`, the “hERG current change (%, negative = inhibition) at 10uM” value is recorded as 8.65%.
Next, `COc1ccc(/C=C/C(=O)Oc2cccc(/C=N/NC(=O)Cc3ccc(Br)cc3)c2)cc1`: -0.724%; `CCOC(=O)c1c(-c2ccc(OC)cc2)csc1NC(=O)CCN1CCOCC1`: -53.2%.
For `O=C(CCc1nc2ccccc2c(=O)[nH]1)OCC(=O)c1cccc(Cl)c1`, the “hERG current change (%, negative = inhibition) at 10uM” value was -5.06%.
`O=C(CCN1N=C(c2ccccc2)CCC1=O)NC1CCCC1`: the “hERG current change (%, negative = inhibition) at 10uM” value is given as 12.1%.
The figure for `O=C(Cc1ccccc1F)c1ccc(O)cc1O` is 3.53%; for `CC(Sc1nnc2ccccn12)C(=O)N1CCc2ccccc2C1` (stereo not drawn) it is -4.77%.
For the molecule `Cc1csc(=O)n1CC(=O)OCC(=O)c1c(N)n(CC(C)C)c(=O)n(C)c1=O`, the “hERG current change (%, negative = inhibition) at 10uM” value was -10.7%.
Regarding `COc1cc(-c2ccc(N)c(OC)c2)ccc1N`, the “hERG current change (%, negative = inhibition) at 10uM” value is 4.89%.
With `O=S(=O)(Nc1ccc(F)cc1Cl)c1ccc(-c2cnc(C3CC3)o2)cc1`, the “hERG current change (%, negative = inhibition) at 10uM” value was -0.162%.
With `COC(=O)c1ccc(N(CC(=O)NC2CCCC2)C(=O)c2ccc(C)s2)cc1`, the “hERG current change (%, negative = inhibition) at 10uM” value is listed as -10.3%.
In the case of `CN(C)C(CNC(=O)CNC(=O)Cc1cccc2ccccc12)c1ccccc1` (stereo not drawn), the “hERG current change (%, negative = inhibition) at 10uM” value is listed as -12.4%.
For the molecule `CCOC(=O)CCC(=O)O[C@H]1[C@H](O[C@@H]2[C@@H](C)[C@H](O[C@H]3C[C@@](C)(OC)[C@@H](O)[C@H](C)O3)[C@@H](C)C(=O)O[C@H](CC)[C@@](C)(O)[C@H](O)[C@@H](C)C(=O)[C@H](C)C[C@@]2(C)O)O[C@H](C)C[C@@H]1N(C)C`, the “hERG current change (%, negative = inhibition) at 10uM” value is -3.25%.
For `Cc1ccc(-c2nc(CN3CCCCC3c3cccc(F)c3)c(C)o2)o1` (stereo not drawn), the “hERG current change (%, negative = inhibition) at 10uM” value worked out at 44.7%.
On to `CN(C)c1ccc(/C=N/NC(=O)c2ccccc2O)o1`, for which the “hERG current change (%, negative = inhibition) at 10uM” value is given as 11%.
With `CCOc1ccc2nc(N/C(N)=N/C(=S)Nc3cccc(C)c3)nc(C)c2c1`, the “hERG current change (%, negative = inhibition) at 10uM” value worked out at 7.56%.
With `CCN(CC)C(=O)C(=O)Nc1cc(C(F)(F)F)ccc1Cl`, the “hERG current change (%, negative = inhibition) at 10uM” value was -3.18%.
On to `COc1ccc(NC(=S)NCc2ccc(F)cc2)cc1`, for which the “hERG current change (%, negative = inhibition) at 10uM” value was -0.243%.
As to `Cc1ccc(OCC(=O)N2CCN(CC3CC4C=CC3C4)CC2)cc1.O=C(O)C(=O)O` (stereo not drawn), the “hERG current change (%, negative = inhibition) at 10uM” value is recorded as -24.3%.
For the molecule `O=C(CCc1nnc(CCCc2ccccc2)o1)N1CCCCCC1`, the “hERG current change (%, negative = inhibition) at 10uM” value worked out at 26%.
With `C[C@@H](NC(=O)c1nc[nH]c1C(=O)N[C@H](C)c1ccccc1)c1ccccc1`, the “hERG current change (%, negative = inhibition) at 10uM” value is listed as 27.3%.
Regarding `CC(NC(=O)c1cc(COc2c(F)cccc2F)on1)c1cnn(-c2ccccc2)c1` (stereo not drawn), the “hERG current change (%, negative = inhibition) at 10uM” value is on record as 11.7%.
Regarding `CCOc1ccc(S(=O)(=O)Nc2ccccc2C(=O)N2CCCC2)cc1`, the “hERG current change (%, negative = inhibition) at 10uM” value is given as 1.41%.
Regarding `Cc1ccc(CSCc2ccc(C(=O)NC3CC3)o2)cc1`, the “hERG current change (%, negative = inhibition) at 10uM” value is on record as -5.31%.
Regarding `Oc1cc2c(cc1CN1CCN(c3cccc(C(F)(F)F)c3)CC1)CCC2`, the “hERG current change (%, negative = inhibition) at 10uM” value was determined as 6.3%.
Take `COC(=O)c1ccccc1NC(=O)C(C)n1nc(C)c2c(C)n(-c3ccccc3)nc2c1=O` (stereo not drawn): the “hERG current change (%, negative = inhibition) at 10uM” value was -50%.
Take `O=C1[C@@H]2C(Cc3ccc(O)cc3)NC3(C(=O)Nc4ccc(F)cc43)[C@@H]2C(=O)N1c1ccc(F)cc1` (stereo partly drawn): the “hERG current change (%, negative = inhibition) at 10uM” value is 10.1%.
The figure for `O=C1OC(Nc2ccc3c(c2)OCO3)c2ccccc21` (stereo not drawn) is -2.44%.
With `COc1ccc(S(=O)(=O)N2CCCC(C(=O)Nc3ccc4c(c3)OCCO4)C2)cc1` (stereo not drawn), the “hERG current change (%, negative = inhibition) at 10uM” value is 6.59%.
On to `Cl.O=C(O)c1ccc(CNCc2cc(Cl)ccc2O)cc1`, for which the “hERG current change (%, negative = inhibition) at 10uM” value came out at 9.22%.
Consider `Cc1ccc(Oc2ncccc2NC(=O)CCCC(=O)O)c2c1CCC2`, for which the “hERG current change (%, negative = inhibition) at 10uM” value is on record as 20.7%.
With `CCOC(=O)N1CCN(c2ccnc3cc(Cl)ccc23)CC1`, the “hERG current change (%, negative = inhibition) at 10uM” value is recorded as -66%.
`CN(c1ccccc1)S(=O)(=O)c1cccc(C(=O)NC2CC(C)(C)NC(C)(C)C2)c1`: the “hERG current change (%, negative = inhibition) at 10uM” value is reported as -31.3%.
Regarding `CC(C(=O)Nc1ccc(F)c(F)c1F)N(C)CCOc1ccccc1` (stereo not drawn), the “hERG current change (%, negative = inhibition) at 10uM” value was -2.28%.
Consider `Cc1ccnc(Nc2nc(-c3ccc(O)c(O)c3)cs2)c1`, for which the “hERG current change (%, negative = inhibition) at 10uM” value worked out at 1.67%.
With `O=C1NC2(CCSC2)C(=O)N1CC(=O)N(Cc1ccccc1)C1CCS(=O)(=O)C1` (stereo not drawn), the “hERG current change (%, negative = inhibition) at 10uM” value is reported as 7.27%.
In the case of `O=C(O)c1ccc(-c2ncc[nH]2)cc1`, the “hERG current change (%, negative = inhibition) at 10uM” value is 15.6%.
`O=C(NC1CCCC1)C1CCCN1S(=O)(=O)c1cccc2cccnc12` (stereo not drawn): the “hERG current change (%, negative = inhibition) at 10uM” value is reported as -0.366%.
With `Nc1cc(C(=O)O)ccc1N1CCCCC1`, the “hERG current change (%, negative = inhibition) at 10uM” value is on record as -1.25%.
Regarding `CC1(C)Cc2c(sc(NC(=O)Cc3ccccc3)c2C#N)CO1`, the “hERG current change (%, negative = inhibition) at 10uM” value is recorded as 14.5%.

For the origin of these results see article PMC4336329 (PLoS ONE, 2015).
